# In PubChem BioAssay AID624417 (National Center for Advancing Translational Sciences (NCATS), 2012):
# Out of some 410,000 compounds screened, about 6,400 (1.6%) were called active. Inconclusive means that the source gave no clear call. Such entries were picked first, then a sample of the others. The call rests on the fitted dose curve; in most records, active means well fitted inhibition curve with a large enough effect; inconclusive means small, poorly fitted or top-dose-only effect; inactive means no such curve, though single readings can be large or run the other way. No potency is given beside an inconclusive call; the fits are too rough.
# Molecular target: Glucagon-like peptide 1 receptor (Homo sapiens) (UniProt P43220)
# UniProt P43220, sequence (P43220 whole entry, looked up): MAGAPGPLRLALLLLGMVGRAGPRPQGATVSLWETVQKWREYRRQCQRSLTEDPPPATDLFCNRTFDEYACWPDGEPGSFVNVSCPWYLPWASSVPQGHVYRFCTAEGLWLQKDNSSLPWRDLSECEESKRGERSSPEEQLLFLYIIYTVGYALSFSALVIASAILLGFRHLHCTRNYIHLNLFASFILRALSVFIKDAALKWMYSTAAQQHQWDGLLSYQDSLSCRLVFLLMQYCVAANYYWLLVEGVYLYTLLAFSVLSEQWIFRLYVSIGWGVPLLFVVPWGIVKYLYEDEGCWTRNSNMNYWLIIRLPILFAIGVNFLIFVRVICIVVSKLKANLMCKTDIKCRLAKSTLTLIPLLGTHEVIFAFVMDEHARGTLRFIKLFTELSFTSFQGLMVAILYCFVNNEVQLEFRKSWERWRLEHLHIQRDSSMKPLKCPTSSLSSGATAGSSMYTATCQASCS
# Assay: qHTS of GLP-1 Receptor Inverse Agonists (Inhibition Mode); further: nearly all actives have a fitted effect of over 55% in size
# Details: HEK293 GLP-1R CRE-luciferase, luminescence, 24 h, GLP-1R form is constitutively active; activity change, negative = inhibition: at 38.3 µM (top of the series) unless noted
# In short: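 Inverse agonists were sought by their lowering of basal cAMP reporter luciferase output in HEK293 cells stably carrying constitutively active human GLP-1R, after 24 h compound treatment.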
# On the % scale 0 is the no-effect control and ±100 the full control effect; potency means the concentration at half of the fitted maximal effect; tags describe the fitted curve by direction and shape.
SMILES,Potency,"activity change, negative = inhibition"
CN(Cc1ccccn1)Cc1nc(-c2ccc(Cl)cc2)no1,"inconclusive [inhibitor, partial curve, poor fit]",
CCOC(=O)c1ccccc1NC(=O)Cc1ccc(OC)c(S(=O)(=O)N2CCOCC2)c1,,inactive: 35.9%
OCc1ccc(OCCCOc2cccc3cccnc23)cc1,,inactive: 25.8%
CCc1cccc(C)c1Nc1c(-c2cccs2)nc2ncccn12,"inconclusive [inhibitor, partial curve, poor fit]",
CC(C)CNC(=O)CSc1nc(-c2cccs2)cc(C(F)(F)F)n1,"inconclusive [inhibitor, partial curve]",
O=C(NCCc1cn2ccccc2n1)c1cc(COc2c(F)cccc2F)on1,"inconclusive [inhibitor, single point]",
O=C(NCc1ccco1)c1cc(-c2ccc(Cl)cc2)on1,,inactive: 20.5%
COc1ccc(/C=N\NC(=O)C2COc3ccccc3O2)cc1O (centres undefined),,inactive: -12.7%
Clc1ccc(SCCCCN2CCOCC2)cc1,,inactive: -26.9%
O=C(Nc1ccc(C(=O)O)cc1)/C(=C\C=C\c1ccccc1)NC(=O)c1cccc(Br)c1,,inactive: 2.86%
CN(C)c1ccc(C(=S)NCc2ccco2)cc1,"inconclusive [inhibitor, partial curve, poor fit]",
COc1cccc(C(O)c2ncc(-c3cccc(C(F)(F)F)c3)[nH]2)c1 (centres undefined),"inconclusive [inhibitor, partial curve, poor fit]",
CC(C)(C)C1CCc2c(sc3ncn(N)c(=N)c23)C1 (centres undefined),"inconclusive [inhibitor, single point]",
CCCc1c2ccccc2nc2ccccc12,"inconclusive [inhibitor, single point]",
CC(=O)N1N=C(c2ccc(Cl)cc2)OC1c1ccc(C(C)C)cc1 (centres undefined),,inactive: -17.5%
O=C(O)c1ccccc1Cc1ccc(F)c2ccccc12,,inactive: -24.8%
COc1ccc(-c2cc(C(F)F)n3ncc(C(=O)N4CCN(C)CC4)c3n2)cc1,,inactive: -24.3%
Cc1ccc(NC(=O)C2CCC(CNS(=O)(=O)c3cccs3)CC2)cc1C (centres undefined),"inconclusive [inhibitor, single point]",
Cc1cc(N2CCOCC2)nc(N)n1,"inconclusive [inhibitor, partial curve, poor fit]",
CCc1ccc(Nc2nc(-c3cc4cccc(OC)c4oc3=O)c(CC)s2)cc1,"inconclusive [inhibitor, partial curve, poor fit]",
COc1ccc(C(=O)NCC(=O)c2ccccc2)cc1,,inactive: -15.2%
CC(=O)c1c(-c2ccc(Cl)cc2)c2ccccc2[nH]c1=O,"inconclusive [inhibitor, partial curve, poor fit]",

SMILES,Potency,"activity change, negative = inhibition"
Cc1ccc(OCCCN(C)C)c(Br)c1,"inconclusive [inhibitor, full curve, poor fit]",
O=C(COc1ccccc1)NNc1nc2ccccc2s1,"inconclusive [inhibitor, single point]",
COc1ccc(-c2coc3c(C(=O)NCCN(C)C)cccc23)c(C)c1,active: 11.2 µM,
Cc1nc([N+](=O)[O-])c(Br)n1CC(=O)c1ccc(Br)cc1,"inconclusive [inhibitor, partial curve, poor fit]",
O=C(NNc1ccccc1C(F)(F)F)c1cccs1,"inconclusive [inhibitor, full curve, poor fit]",
CCCN(C(=O)c1cc2c(s1)-c1ccccc1OC2)c1ccc(C(C)C)cc1,"inconclusive [inhibitor, single point]",
O=C(NCc1nc2ccccc2[nH]1)C1=C[C@H](c2ccc(Br)cc2)C[C@H](OCc2ccc(CO)cc2)O1,"inconclusive [inhibitor, single point]",
CCCCCc1cc(=O)oc2c(C(CCN3CCCC3)c3ccc(N(C)C)cc3)c(OC)cc(OC)c12 (centres undefined),"inconclusive [inhibitor, single point]",
Cc1ccc(F)cc1NC(=O)Nc1cc(C(C)(C)C)nn1C,"inconclusive [inhibitor, single point]",
O=c1c2cc(N3CCOCC3)ccc2[nH]c(=S)n1CCc1ccccc1,,inactive: -2.7%
CC(C)C[C@H](NC(=O)c1[nH]cnc1C(=O)N[C@@H](C)C(=O)OCc1ccccc1)C(=O)OCc1ccccc1,"inconclusive [inhibitor, full curve, poor fit]",
O=C(Nc1ccc2c(c1)CCCN2C(=O)c1cccs1)c1ccccc1C(F)(F)F,"inconclusive [inhibitor, full curve, poor fit]",
COc1ccc2nc(-c3ccccc3)cc(OC)c2c1,"inconclusive [inhibitor, single point]",
N#CC(=C(O)COC(=O)CCCNC(=O)c1ccc(Cl)cc1)c1nc2ccccc2[nH]1,"inconclusive [inhibitor, single point]",
Cc1cccc(C(=O)NC(=S)NCc2cccnc2)c1,,inactive: -2.11%
O=C(c1ccccc1F)n1c2c(c3ccccc31)CCCC2,"inconclusive [inhibitor, partial curve, poor fit]",
Clc1cccc(Cc2c(-c3ccco3)nc3ccc(Br)cn23)c1,"inconclusive [inhibitor, single point]",
CCOC(=O)Cc1ccc(NC(=O)Nc2nnc(N3CCCCC3C)s2)cc1 (centres undefined),"inconclusive [inhibitor, single point]",
CC1CCN(Cc2c(C(=O)N/N=C/c3cc(Br)ccc3O)nnn2-c2nonc2N)CC1,active: 3.98 µM,
COc1ccc(CNC(=S)Nc2cccc(Cl)c2)cc1,"inconclusive [inhibitor, single point]",
CN1CCN(C(=O)c2cc(COc3c(F)cccc3F)on2)CC1c1ccccc1 (centres undefined),"inconclusive [inhibitor, partial curve, poor fit]",
O=C(COc1ccc(Br)cc1)c1ccc2c(c1)CCCC2,"inconclusive [inhibitor, partial curve]",
